Data: paper PMC4336329 (PLoS ONE, 2015)
The whole screen tested about 310,000 compounds, of which about 14,000 (4.5%) showed an effect of 50% or more. Effects have a minus sign here. This is one part of the list.

molecular target: human ether-à-go-go-related gene (hERG) potassium channel (human, UniProt Q12809); assay: primary screen, population patch clamp on CHO cells stably expressing hERG
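Note: peak tail current of the secondary pulse compared with the same well before compound.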

Chain of human ether-à-go-go-related gene (hERG) potassium channel (Q12809 whole entry, looked up): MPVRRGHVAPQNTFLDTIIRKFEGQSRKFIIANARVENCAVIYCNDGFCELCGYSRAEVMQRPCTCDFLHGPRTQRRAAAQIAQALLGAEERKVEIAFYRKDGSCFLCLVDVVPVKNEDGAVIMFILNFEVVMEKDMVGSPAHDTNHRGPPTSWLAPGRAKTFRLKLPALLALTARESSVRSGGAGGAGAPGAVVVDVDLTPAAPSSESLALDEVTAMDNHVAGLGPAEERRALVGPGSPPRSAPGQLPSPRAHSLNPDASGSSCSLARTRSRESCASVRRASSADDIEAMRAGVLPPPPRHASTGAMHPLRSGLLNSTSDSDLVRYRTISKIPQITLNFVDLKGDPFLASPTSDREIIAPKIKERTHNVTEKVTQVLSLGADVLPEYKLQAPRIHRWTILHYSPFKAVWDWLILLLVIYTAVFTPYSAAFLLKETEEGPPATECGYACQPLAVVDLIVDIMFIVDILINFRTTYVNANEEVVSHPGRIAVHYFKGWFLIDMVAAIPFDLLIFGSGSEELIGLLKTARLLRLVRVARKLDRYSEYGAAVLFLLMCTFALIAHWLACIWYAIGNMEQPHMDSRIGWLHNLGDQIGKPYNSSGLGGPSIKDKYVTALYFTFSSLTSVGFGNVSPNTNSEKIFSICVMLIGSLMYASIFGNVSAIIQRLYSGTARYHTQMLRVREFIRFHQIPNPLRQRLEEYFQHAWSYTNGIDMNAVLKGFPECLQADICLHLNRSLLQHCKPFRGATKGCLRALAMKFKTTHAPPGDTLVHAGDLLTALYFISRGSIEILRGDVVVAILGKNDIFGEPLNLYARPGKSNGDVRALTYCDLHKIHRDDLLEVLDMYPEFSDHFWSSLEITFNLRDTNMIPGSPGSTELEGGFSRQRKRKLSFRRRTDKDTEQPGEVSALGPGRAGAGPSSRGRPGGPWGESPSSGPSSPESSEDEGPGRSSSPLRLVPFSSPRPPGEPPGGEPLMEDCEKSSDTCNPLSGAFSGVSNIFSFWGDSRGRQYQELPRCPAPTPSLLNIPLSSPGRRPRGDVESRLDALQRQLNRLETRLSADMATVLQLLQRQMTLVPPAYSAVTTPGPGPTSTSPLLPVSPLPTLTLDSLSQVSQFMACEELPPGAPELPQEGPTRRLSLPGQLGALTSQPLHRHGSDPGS

First: COc1ccc(NC(=O)CCCn2c(=O)oc3ccccc32)cc1Cl
Second: O=C(CCn1c(=O)oc2ccccc21)Nc1ccc(C(=O)O)cc1
The “hERG current change (%, negative = inhibition) at 10uM” value of the first is higher: -12.9% for the first, -45% for the second.

First: Cc1nc2sc(C(c3cccs3)N3CCN(Cc4ccccc4)CC3)c(O)n2n1 (stereo not drawn)
Second: COc1ccc(CN2CCN(Cc3ccccc3F)CC2)cc1.O=C(O)C(=O)O
The “hERG current change (%, negative = inhibition) at 10uM” value of the first is lower: -81.2% for the first, -43.2% for the second.

Compared with `CCCNc1nc(N2CCCC2)nc(N2CCCC2)n1`, `CCC(C)NC(=O)Cn1cc(S(=O)(=O)N2CCCC2)c(S(=O)(=O)N2CCCC2)c1` (stereo not drawn) is higher in “hERG current change (%, negative = inhibition) at 10uM” value: -28.9% for the first, 22.7% for the second.

First: O=C(O)C1=NOC(CNc2ncc(C(F)(F)F)cc2Cl)C1 (stereo not drawn)
Second: Cc1cc(C)c2cc(C(=O)N3CCN(c4ncccc4C(F)(F)F)CC3)[nH]c2c1
The “hERG current change (%, negative = inhibition) at 10uM” value of the first is higher: 20.8% for the first, -2.36% for the second.

Going from `CC(=O)Nc1ccccc1C(=O)C(=O)Nc1cccc(C(=O)NCc2ccccc2)c1` to `CCC(NC(=O)c1ccccc1NC(=O)c1ccccc1)C(=O)NNC(=O)CSc1nc2ccccc2o1` (stereo not drawn), the “hERG current change (%, negative = inhibition) at 10uM” value rises from -32.6% to -3.16%.

First: O=C(O)c1cccnc1SCc1ccccc1Cl
Second: O=C(O)CSc1ccc2ccccc2n1
The “hERG current change (%, negative = inhibition) at 10uM” value of the first is lower: 1.93% for the first, 10.9% for the second.

Going from `CCOC(=O)c1c(C)[nH]c(C(=O)OCC(=O)N(CC(C)C)c2c(N)n(Cc3ccccc3)c(=O)[nH]c2=O)c1C` to `CCOC(=O)Cn1nnnc1C(CC)N(Cc1ccccc1)Cc1cc2cc(C)ccc2[nH]c1=O` (stereo not drawn), the “hERG current change (%, negative = inhibition) at 10uM” value rises from -17.9% to 7.64%.

First: COc1ccc(C2C(C#N)=C(SC)NC3=C2C(=O)CC(C)(C)C3)cc1 (stereo not drawn)
Second: CC1(C)CC(=O)C2=C(C1)OC(N)=C(C#N)C2c1ccsc1 (stereo not drawn)
The “hERG current change (%, negative = inhibition) at 10uM” value of the first is higher: -15.4% for the first, -15.6% for the second.

First: O=C(CCN1C(=O)/C(=C/c2ccccc2Cl)SC1=S)NNC(=O)c1ccccc1O
Second: O=C(CCN1C(=O)c2ccccc2S1(=O)=O)Nc1ccc(F)cc1F
The “hERG current change (%, negative = inhibition) at 10uM” value of the first is lower: -6.37% for the first, 1.36% for the second.

First: CCN(CC)CCCNC(=S)N(Cc1cccnc1)Cc1cc2cc(C)ccc2[nH]c1=O
Second: CCc1cccc(C)c1NC(=S)NCc1ccccc1
The “hERG current change (%, negative = inhibition) at 10uM” value of the first is lower: -5.72% for the first, 0.76% for the second.

Going from `CN(Cc1cccc(Cl)c1Cl)c1ccc(S(=O)(=O)N2CCCCC2)cc1[N+](=O)[O-]` to `O=C(c1cccc(S(=O)(=O)N2CCCCC2)c1)N1CCc2ccccc21`, the “hERG current change (%, negative = inhibition) at 10uM” value falls from 5.82% to -29.5%.

First: CCCOC(=O)c1c(NC(=O)C2C3C=CC(C3)C2C(=O)O)sc2c1CCC(C)C2 (stereo not drawn)
Second: CCOC(=O)c1c(NC(=O)C2=COCCO2)sc2c1CCN(C(=O)OC)C2
The “hERG current change (%, negative = inhibition) at 10uM” value of the first is lower: -59.3% for the first, 4.05% for the second.

First: CCn1c(O)c(C(C#N)=C2N=c3ccccc3=N2)c2ccccc21
Second: Cc1cccc(OCCCn2c(=O)oc3ccccc32)c1
The “hERG current change (%, negative = inhibition) at 10uM” value of the first is lower: -6.56% for the first, -1.72% for the second.

First: CN(C(=O)COC(=O)COc1ccccc1Cc1ccccc1)c1ccccc1
Second: Cc1ccccc1CN1[C@@H](Cc2ccccc2)COCCS1(=O)=O
The “hERG current change (%, negative = inhibition) at 10uM” value of the first is lower: -12% for the first, -9.87% for the second.

Going from `COc1ccc(S(=O)(=O)N2CC(C)OC(C)C2)cc1C(=O)N1CCCCC1` (stereo not drawn) to `COc1ccc(S(=O)(=O)N2CCC(C(=O)NC3CC3)CC2)cc1Cl`, the “hERG current change (%, negative = inhibition) at 10uM” value rises from 6.93% to 7.7%.

First: CCOc1ccc(NC(=O)CN(C)C(=O)CC2CCCCC2)cc1OCC
Second: CCN1CCc2c(OCC(=O)Nc3cccc(C)c3)cccc2C1=O
The “hERG current change (%, negative = inhibition) at 10uM” value of the first is lower: -19.8% for the first, -9.92% for the second.

Going from `CC(Oc1ccccc1)c1nnc(N)s1` (stereo not drawn) to `NC(=O)CCCc1nc(-c2ccccc2)no1`, the “hERG current change (%, negative = inhibition) at 10uM” value rises from -1.12% to 6.27%.

Compared with `Cc1ccc(S(=O)Cc2ccc(C(=O)N3CCN(C(=O)c4ccco4)CC3)o2)cc1` (stereo not drawn), `Cc1ccc(-c2nnc(SCC(=O)N3CCOCC3)nc2-c2ccc(C)cc2)cc1` is lower in “hERG current change (%, negative = inhibition) at 10uM” value: -1.46% for the first, -30.3% for the second.

Going from `COc1ccc(C(=O)N2c3ccc(F)cc3CCC2C)cc1OC` (stereo not drawn) to `COc1cc(OC)cc(-c2nnc(SCc3ccc(C(=O)O)cc3)o2)c1`, the “hERG current change (%, negative = inhibition) at 10uM” value falls from 0.433% to -71.6%.

First: CC(NC(=O)CN1CCN(c2ccc(Cl)cc2)CC1)c1ccccc1 (stereo not drawn)
Second: CC(C)c1ccc(C(=O)Nc2ccc(CN3CCOCC3)cc2)cc1
The “hERG current change (%, negative = inhibition) at 10uM” value of the first is higher: -42.7% for the first, -48.3% for the second.

First: COC(=O)C1CCN(C(=O)COC(=O)c2n[nH]c3ccccc23)CC1
Second: COc1ccc2[nH]cc(C(O)CN3CCC(C(N)=O)CC3)c2c1 (stereo not drawn)
The “hERG current change (%, negative = inhibition) at 10uM” value of the first is lower: 10.8% for the first, 12% for the second.

Going from `CCCCCOc1ccc(Cn2ccnc2)cc1[N+](=O)[O-].Cl` to `Cc1ccc(CNc2ncnc(N)c2[N+](=O)[O-])cc1`, the “hERG current change (%, negative = inhibition) at 10uM” value rises from -45.4% to 4.56%.

Going from `CC1CCN(c2nc3ccc(C(=O)NCCCN4CCCCC4)cc3s2)CC1` to `Cc1c(C(=O)N2CCC(C)CC2)oc2ccc(S(=O)(=O)N3CCC4(CC3)OCCO4)cc12`, the “hERG current change (%, negative = inhibition) at 10uM” value rises from -50% to -2.35%.

Going from `Cc1ccc(C(=O)Nc2ccc(C(=O)N/N=C/c3ccncc3)cc2)cc1` to `COc1ccc(NC(=O)c2ccc(Cn3cc(Cl)cn3)cc2)cc1`, the “hERG current change (%, negative = inhibition) at 10uM” value falls from 18.5% to 1.21%.

Going from `O=S(=O)(NC1CC2CCC1C2)c1ccc(Br)cc1` (stereo not drawn) to `O=C1C(Cl)=C(N2CCOCC2)C(=O)N1c1ccc(Br)cc1`, the “hERG current change (%, negative = inhibition) at 10uM” value rises from -4.98% to 14.8%.

First: CCOc1ccc(NC(=O)NCCCn2c(C)nc3cc(C)c(C)cc32)cc1
Second: COc1ccc(-c2csc(NC(=O)c3c(C)noc3C)n2)cc1
The “hERG current change (%, negative = inhibition) at 10uM” value of the first is lower: -55.5% for the first, -8.91% for the second.

Going from `CSCCC(NS(=O)(=O)c1ccc2c(c1)OCCO2)C(=O)N(C)Cc1ccc(C)cc1` (stereo not drawn) to `Cc1ccc(CNC(=O)C2(S(=O)(=O)c3ccccc3)CC=CC2)cc1`, the “hERG current change (%, negative = inhibition) at 10uM” value falls from -3.42% to -13.2%.

Compared with `O=C(NNC(=S)Nc1ccc(F)cc1)C1CC1c1ccc(Cl)cc1` (stereo not drawn), `O=C(Nc1ccc(N2CCOCC2)cc1)C1CC(=O)N(c2ccc(F)cc2)C1` (stereo not drawn) is higher in “hERG current change (%, negative = inhibition) at 10uM” value: -33.2% for the first, 5.93% for the second.

Going from `CCCC(=O)OCC(=O)c1[nH]c(C)c(C(C)=O)c1C` to `CCOC(=O)C1=C(NC(=S)NC(=O)c2ccccc2)c2ccccc2CC1(C)CC` (stereo not drawn), the “hERG current change (%, negative = inhibition) at 10uM” value falls from 11.4% to 3.16%.

Going from `O=C1CCCc2c1nc(-c1ccco1)n2O` to `O=C(Nc1cc(Cl)ccc1Cl)c1noc2c1CCCC2`, the “hERG current change (%, negative = inhibition) at 10uM” value rises from 12.1% to 12.4%.

Compared with `O=C1N[C@H](C(=O)O)CS1`, `CC1CCc2c(sc(N)c2C(N)=O)C1` (stereo not drawn) is lower in “hERG current change (%, negative = inhibition) at 10uM” value: -1.57% for the first, -4.13% for the second.

Going from `CCN(CC)S(=O)(=O)c1cccc(-c2nnc(SCC(N)=O)n2N)c1` to `CCOC(=O)CSc1nnnn1-c1cccc2ccccc12`, the “hERG current change (%, negative = inhibition) at 10uM” value rises from -28.9% to -5.25%.

Going from `CCCC1N2CC3([N+](=O)[O-])CN1CC([N+](=O)[O-])(C2)C3(C)C` (stereo not drawn) to `CCOC(=O)/C(=N\Nc1ccc(Br)cc1)N1CC(C)OC(C)C1` (stereo not drawn), the “hERG current change (%, negative = inhibition) at 10uM” value falls from -1.89% to -42.3%.

First: CCC1CCCCN1S(=O)(=O)c1ccc(S(=O)(=O)N(Cc2ccccn2)CC2CCCO2)cc1 (stereo not drawn)
Second: O=C(NCC1CCCO1)c1ccc2c(=O)n(Cc3ccc(Cl)cc3)c(=S)[nH]c2c1 (stereo not drawn)
The “hERG current change (%, negative = inhibition) at 10uM” value of the first is lower: -6.23% for the first, 6.02% for the second.

Going from `Cc1cc(CN2CCCCC2)oc1C(=O)O.Cl` to `COc1ccc(OCC(=O)OC(C)CN2CCCCC2)cc1` (stereo not drawn), the “hERG current change (%, negative = inhibition) at 10uM” value rises from -9.14% to 12.1%.

Compared with `Cc1ccc(C)c(-n2nnnc2Sc2nc([N+](=O)[O-])nn2C)c1`, `Cn1nnnc1SCc1nc2ccccc2[nH]1` is higher in “hERG current change (%, negative = inhibition) at 10uM” value: -22.5% for the first, 0.0269% for the second.

Going from `COC(=O)c1ccccc1Sc1ncnc2onc(C)c12` to `Cc1ccc(-c2noc(-c3ccccc3Br)n2)cc1`, the “hERG current change (%, negative = inhibition) at 10uM” value rises from 1.26% to 20.5%.

Compared with `O=C(Nc1ccc(Cc2ccc(NC(=O)C3CC3)cc2)cc1)C1CC1`, `CC(=O)c1ccc(NC(=O)C2=CC(c3cccs3)=NS(=O)(=O)N2C)cc1` is lower in “hERG current change (%, negative = inhibition) at 10uM” value: 22.7% for the first, -0.218% for the second.

Compared with `O=C(O)/C(=C1/OC(=O)c2ccccc21)c1ccccc1`, `COc1ccccc1NC(=O)CN(c1ccccc1C)S(C)(=O)=O` is lower in “hERG current change (%, negative = inhibition) at 10uM” value: 12.4% for the first, 11.2% for the second.

Compared with `Nc1cccc(S(=O)(=O)Nc2ccc(SC(F)F)cc2)c1`, `COc1ccc(C2Nc3ccccc3C(=O)N2NS(=O)(=O)c2ccc(C)cc2)c(OC)c1` (stereo not drawn) is lower in “hERG current change (%, negative = inhibition) at 10uM” value: 4.81% for the first, 3.22% for the second.

First: CN(C)NC(=O)c1cccc(Cl)c1
Second: CC(=O)c1cccc(NC(=O)c2nccnc2C(=O)O)c1
The “hERG current change (%, negative = inhibition) at 10uM” value of the first is higher: 18.4% for the first, 5.71% for the second.

First: CN(C)c1ccc(CC(=O)c2nc3ccccc3s2)cc1
Second: CCn1cc(S(=O)(=O)NCc2ccccc2Br)cn1
The “hERG current change (%, negative = inhibition) at 10uM” value of the first is higher: 11.5% for the first, -1.6% for the second.

First: CC1(C(=O)OCc2cc(=O)n3cc(Br)ccc3n2)CC1(Cl)Cl (stereo not drawn)
Second: CC(C)n1c(=O)c(C=Nc2ccc(Br)cc2)c(O)n(Cc2ccco2)c1=O
The “hERG current change (%, negative = inhibition) at 10uM” value of the first is lower: -54.3% for the first, 9.14% for the second.

Going from `CCCCCNC(=O)c1ccc2c(=O)[nH]c3c(C(=O)NCC4CCCO4)sc(=S)n3c2c1` (stereo not drawn) to `Cc1ccnn1CC(=O)N/N=C/c1ccc2c(c1)OCO2`, the “hERG current change (%, negative = inhibition) at 10uM” value falls from -4.56% to -7.72%.

Going from `CC(C)CC(=O)/C=C/n1c(=S)oc2ccccc21` to `COC(=O)C(C)(C)ONC(=O)Nc1ccc([N+](=O)[O-])cc1`, the “hERG current change (%, negative = inhibition) at 10uM” value falls from 7.85% to -0.166%.
